The supplement of paper PMC3334620
Whole data set: some 33,000 sequences, median “E-score (-0.5 to 0.5)” near -0.016, cut for the highest 2% near 0.32. This is one part of the list.

target: T1, Stp1 (UniProt B3LFK1); experiment: PBM E-score (8-mer binding enrichment) (E-score (-0.5 to 0.5)); higher = stronger / more preferred TF binding; most listed sequences are background and not binding sites; settings: protein concentration: 200 nM; construct: GST-full length
T1 sequence: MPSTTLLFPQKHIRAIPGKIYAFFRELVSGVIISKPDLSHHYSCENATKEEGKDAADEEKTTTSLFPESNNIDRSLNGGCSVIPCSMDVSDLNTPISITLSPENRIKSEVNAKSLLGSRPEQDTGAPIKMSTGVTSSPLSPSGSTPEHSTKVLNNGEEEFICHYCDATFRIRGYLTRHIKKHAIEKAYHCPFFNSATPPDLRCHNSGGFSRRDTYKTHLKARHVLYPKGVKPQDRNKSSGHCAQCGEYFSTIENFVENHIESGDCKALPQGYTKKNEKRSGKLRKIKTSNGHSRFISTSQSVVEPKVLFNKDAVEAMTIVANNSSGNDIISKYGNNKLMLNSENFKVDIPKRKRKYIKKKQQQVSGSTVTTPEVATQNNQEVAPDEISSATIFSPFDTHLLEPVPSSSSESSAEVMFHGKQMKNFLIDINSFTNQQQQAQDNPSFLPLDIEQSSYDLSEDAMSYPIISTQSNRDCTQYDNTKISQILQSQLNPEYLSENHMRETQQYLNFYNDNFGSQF
Method in brief: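 GST-tagged yeast TFs (full-length or DNA-binding domain) were made by PURExpress in vitro transcription/translation and applied at about 100-200 nM to universal all-10-mer Agilent arrays. The arrays were made double-stranded by primer extension, on fresh or once-stripped slides. Bound protein was detected with fluorescent anti-GST, and scans were normalised with masliner. Each ungapped eight-base word, pooled with its reverse complement, received an E-score (modified Wilcoxon-Mann-Whitney statistic) from the Universal PBM Analysis Suite.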

Sequence	PBM E-score
GGCCTCAC	-0.00507
CATTGTGA	-0.103
AACGACGG	0.163
CCACATTA	-0.016
ACGGAGGA	-0.121
CGCGAGTA	0.0727
CCTCGGGC	-0.145
ACATTACG	0.175
ATGCTTGC	-0.24
CCCCACAA	-0.0971
CCGACAGA	0.00648
CGCCTCTA	0.154
CGAAGCTA	-0.118
GCAACAAA	0.224
CTTTGGGA	-0.148
CTGTACAG	0.0546
AGGATCCT	0.0962
GGAATACA	-0.0242
ACCAAGAG	-0.0461
CTAACAAG	0.0791
ACGTTCCT	0.0743
GAGCTCAA	-0.0649
CGGCTCTC	0.334
ATCGGGGA	-0.361
AGCGGATA	-0.031

Sequence	PBM E-score
CGGCGCCC	0.38
AGAGTGAA	0.0883
ACGCCCCT	-0.241
GGCTAGAA	0.124
ACGACCAC	-0.0293
AGAGGCGC	0.327
CGTTATAG	0.0844
ATGTGGTG	0.061
GCGGCTCA	0.461
AAACCGAT	0.00051
CAGCGGCC	-0.111
AACCCCCA	-0.277
TGAGAAAA	0.116
GCACTGCC	0.295
CATTTCTC	-0.0331
GAGGTTCA	-0.0614
ATAGGCAG	0.0667
CGTACTTC	0.112
ACATATCG	-0.0648
TACCCGAA	-0.0694
CGCACCTA	-0.0809
ACAACAGA	-0.0979
GCGCGTCC	-0.0448
CCTAGCCG	0.209
CTAAAAAC	0.00514

Sequence	PBM E-score
AGCCCAGA	-0.184
ATCACCCC	-0.153
AACTTATC	-0.101
GAGACTGC	-0.0601
AAGGGGCG	-0.0739
AAGACCAA	0.0637
GCGCTTCA	0.0695
CGTGCTTC	0.21
CGTTAAAG	0.0537
CCACGTAG	-0.231
AAACTATG	0.092
ACGTTAAA	0.0978
CCCTGCGC	-0.0515
ACTGATTA	-0.00806
TCGTGTCA	-0.0426
CAGCGCCA	0.0346
CAATTATC	0.0472
GTAGCGAA	-0.00393
CGCGTAAG	0.0543
CGACACCA	-0.139
ATTCGCCG	0.328
CAGGTTAG	-0.0241
CTTCGTTA	-0.136
ATATCTAG	0.131
CCGCTCCC	-0.129

Sequence	PBM E-score
AGACTCAC	-0.325
ATAAGTAT	0.0253
ATTGAGGG	-0.18
AGGGTTTA	-0.0642
TCTTTAAA	0.214
CGTCTAGA	0.0196
ACTTTATG	-0.0114
GCGTACGA	0.116
TAATAGGA	0.00841
CGTGCTCA	0.072
CCACGACG	0.0824
GATGCCAA	0.147
CGTCAGGC	-0.183
GAGGCCGA	-0.172
CTCCCACC	-0.172
CCTATCGA	-0.0175
CGGCCGCC	0.269
AATTGTGC	0.269
AGCCGTAG	0.392
ATTGGGGG	-0.336
ACATGTTC	-0.148
GCCAGTAA	-0.0247
ACAATAGA	0.119
AAGTGCGG	0.0699
CCATTGTC	-0.0473

Sequence	PBM E-score
ACTTCTAG	-0.0314
AAACATAG	-0.163
ATTCCAAA	0.0517
CGCACTCA	0.0725
CGATAGAG	-0.106
TGACCACA	-0.109
GGCCGGCA	0.2
CTACAACC	0.172
GGCGCAGA	0.271
ACATATGG	0.0758
ACGGTAGC	-0.0803
CTCGCTTC	-0.114
GGCCGGAA	-0.106
TAGCATAA	0.0006
CACAATAG	0.111
CAAACGTG	-0.0243
AACGTCGA	0.1
TAGGACTA	0.0602
AAATCTTG	-0.00868
CAGCAGTA	-0.0846
GCATTACC	-0.124
CAGCTCTC	-0.325
AGACGGAC	-0.055
GACCGTAA	-0.0965
AAGACGGG	0.0493

Sequence	PBM E-score
AATTTGGC	-0.0372
ACGAGCGC	-0.0541
ATGTGATA	-0.0523
AATTACGT	0.00761
ACTGGAAG	-0.2
GCCTAAGC	-0.0799
GAACGCCC	-0.00871
ATCCCCCA	-0.372
AAGGCCAC	0.101
AGGAGCGG	-0.029
CCACCAGC	-0.211
GCCGGGAC	-0.284
GACGCCGA	0.304
GAAACTGC	-0.0102
TAATCATA	0.0515
CGAGTTCC	-0.0641
CCCCATTC	-0.135
ATGCCACA	0.243
GGAGGTAC	-0.209
GAGATATC	0.0576
ACTTATGC	-0.039
CAAAACTC	-0.0208
GGCGAACC	0.163
CGCCGTAG	0.465
TCCCGCGA	-0.312

Sequence	PBM E-score
TGATGACA	-0.128
GCCCGCTA	-0.112
CGAATTAC	-0.0649
ACAATACA	0.146
AGGGTGCG	-0.125
CGGGTCCA	-0.289
CCGCGCGG	0.469
CACAAATA	0.237
GCGTCGCA	-0.0271
TTAACAAA	0.175
ACCAATAC	-0.092
AGAGAGCA	-0.213
CGATACAA	0.0278
ACGGGATA	0.0598
AGTACTTA	-0.0805
ATAAGGTC	-0.0818
CCAGGGCA	-0.0496
CCCAGGAG	-0.182
GACATATC	0.0516
AGCGAACT	0.00922
CCTCGAGC	0.134
CAGAACAA	0.175
